Results from the supplement of paper PMC4967469.

compound: Nc1[nH]nc2nnc(-c3c(-c4ccccc4)nn4ccccc34)cc12 [FR-180204]; assay: Viability of human cancer cell lines after 72 h of drug (GDSC screen); settings: top dose 20 µM; top dose inferred
Experimental: (§1)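 Human cancer cell lines in 384-well plates, medium with 10% serum, drug for 72 h over a 256-fold dose range (nine 2-fold or five 4-fold steps up to the top dose). Adherent lines were fixed and stained with the nucleic acid dye Syto60, suspension lines read with resazurin; signal relative to control wells, capped at 0 and 100%. One two-parameter sigmoid per drug and line, fitted in a mixed model over all curves with the slope shared within a line.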

Row | Cell Line | AUC | IC50
1 | MSTO-211H (mesothelioma, adherent) | 0.991 | > 20000 nM
2 | MY-M12 (leukaemia, suspension) | 0.829 | 14700 nM
3 | NALM-6 (B-cell leukaemia, suspension) | 0.911 | > 20000 nM
4 | NB14 (neuroblastoma, adherent) | 0.968 | > 20000 nM
5 | NB17 (neuroblastoma, adherent) | 0.964 | > 20000 nM
6 | NB69 (neuroblastoma, adherent) | 0.956 | > 20000 nM
7 | NCI-H64 (small cell lung carcinoma, suspension) | 0.995 | > 20000 nM
8 | NCI-H82 (small cell lung carcinoma, suspension) | 0.985 | > 20000 nM
9 | NCI-H510A (small cell lung carcinoma, semi-adherent) | 0.967 | > 20000 nM
10 | NCI-H647 (non-small cell lung carcinoma, adherent) | 0.97 | > 20000 nM
11 | NCI-H748 (small cell lung carcinoma, suspension) | 0.981 | > 20000 nM
12 | NCI-H1734 (lung adenocarcinoma, adherent) | 0.98 | > 20000 nM
13 | NCI-H1963 (small cell lung carcinoma, suspension) | 0.99 | > 20000 nM
14 | NCI-H2052 (mesothelioma, adherent) | 0.976 | > 20000 nM
15 | NCI-H2171 (small cell lung carcinoma, suspension) | 0.992 | > 20000 nM
16 | NCI-H2196 (small cell lung carcinoma, adherent) | 0.947 | > 20000 nM
17 | NCI-H3122 (lung adenocarcinoma, adherent) | 0.974 | > 20000 nM
18 | NCI-SNU-16 (stomach, suspension) | 0.991 | > 20000 nM
19 | NOMO-1 (acute myeloid leukaemia, suspension) | 0.948 | > 20000 nM
20 | OCUM-1 (stomach, adherent) | 0.977 | > 20000 nM

Row | Cell Line | AUC | IC50
21 | PA-1 (ovary, adherent) | 0.961 | > 20000 nM
22 | PFSK-1 (medulloblastoma, adherent) | 0.98 | > 20000 nM
23 | RCC10RGB (kidney, adherent) | 0.928 | > 20000 nM
24 | RPMI-7951 (melanoma, adherent) | 0.974 | > 20000 nM
25 | RPMI-8226 (myeloma, suspension) | 0.973 | > 20000 nM
26 | SAT (head and neck, adherent) | 0.965 | > 20000 nM
27 | SCC-3 (B-cell lymphoma, suspension) | 0.997 | > 20000 nM
28 | SIG-M5 (acute myeloid leukaemia, suspension) | 0.474 | 1080 nM
29 | SNU-175 (large intestine, suspension) | 0.917 | > 20000 nM
30 | SNU-475 (liver, adherent) | 0.991 | > 20000 nM
31 | SU-DHL-1 (anaplastic large cell lymphoma, suspension) | 0.997 | > 20000 nM
32 | SU-DHL-8 (B-cell lymphoma, suspension) | 0.988 | > 20000 nM
33 | SUP-B15 (lymphoblastic leukaemia, suspension) | 0.89 | > 20000 nM
34 | SW954 (urogenital system, adherent) | 0.965 | > 20000 nM
35 | TALL-1 (T-cell lymphoblastic leukaemia, suspension) | 0.988 | > 20000 nM
36 | TE-441-T (rhabdomyosarcoma, adherent) | 0.97 | > 20000 nM
37 | UACC-812 (breast, adherent) | 0.975 | > 20000 nM
38 | UACC-893 (breast, adherent) | 0.977 | > 20000 nM
39 | VMRC-RCW (kidney, adherent) | 0.979 | > 20000 nM
40 | YMB-1-E (breast, adherent) | 0.971 | > 20000 nM

compound: O=C(/C=C/c1cccnc1)NCCCCC1CCN(C(=O)c2ccccc2)CC1 [FK866]; assay: as above; settings: top dose 1 µM; top dose inferred
Experimental: as §1

Row | Cell Line | AUC | IC50
41 | BALL-1 (B-cell leukaemia, suspension) | 0.008 | < 3.91 nM
42 | BT-549 (breast, adherent) | 0.689 | 263 nM
43 | CL-34 (large intestine, adherent) | 0.891 | > 1000 nM
44 | CL-40 (large intestine, adherent) | 0.915 | > 1000 nM
45 | CML-T1 (chronic myeloid leukaemia, suspension) | 0.033 | < 3.91 nM
46 | COR-L32 (small cell lung carcinoma, suspension) | 0.359 | 16.9 nM
47 | CRO-AP2 (B-cell lymphoma, suspension) | 0.042 | < 3.91 nM
48 | DIFI (large intestine, adherent) | 0.4 | 32.7 nM
49 | EHEB (lymphoid neoplasm, suspension) | 0.41 | 31.8 nM
50 | EW-22 (Ewing sarcoma, adherent) | 0.151 | 5.53 nM
51 | GA-10 (Burkitt lymphoma, suspension) | 0.04 | < 3.91 nM
52 | H290 (mesothelioma, adherent) | 0.988 | > 1000 nM
53 | H2810 (mesothelioma, adherent) | 0.803 | 559 nM
54 | HCC-366 (non-small cell lung carcinoma, adherent) | 0.61 | 127 nM
55 | IGROV-1 (ovary, adherent) | 0.665 | 224 nM
56 | IM-9 (myeloma, suspension) | 0.076 | < 3.91 nM

Row | Cell Line | AUC | IC50
57 | IST-SL2 (small cell lung carcinoma, suspension) | 0.035 | < 3.91 nM
58 | JEKO-1 (B-cell lymphoma, suspension) | 0.025 | < 3.91 nM
59 | JHU-029 (head and neck, adherent) | 0.323 | 17.7 nM
60 | KARPAS-231 (B-cell leukaemia, suspension) | 0.021 | < 3.91 nM
61 | KARPAS-1106P (B-cell lymphoma, suspension) | 0.048 | < 3.91 nM
62 | KASUMI-1 (acute myeloid leukaemia, suspension) | 0.191 | 7.46 nM
63 | KATOIII (stomach, semi-adherent) | 0.062 | < 3.91 nM
64 | KNS-62 (lung squamous cell carcinoma, adherent) | 0.633 | 172 nM
65 | KP-1N (pancreas, adherent) | 0.243 | 10.9 nM
66 | LB647-SCLC (small cell lung carcinoma, semi-adherent) | 0.099 | < 3.91 nM
67 | MEL-HO (melanoma, adherent) | 0.469 | 51.3 nM
68 | MHH-CALL-2 (B-cell leukaemia, suspension) | 0.577 | 96.1 nM
69 | MKN7 (stomach, adherent) | 0.909 | > 1000 nM
70 | MOLM-16 (acute myeloid leukaemia, suspension) | 0.948 | > 1000 nM
71 | MOLT-16 (T-cell lymphoblastic leukaemia, suspension) | 0.016 | < 3.91 nM

Lines with a small IC50 respond at low doses; a limit (>, <) means that the fit lies beyond the doses tested. AUC is the area under the same curve over the 256-fold range up to the top dose, as a fraction: 1 means no effect, lower means more sensitive. A top dose marked as inferred was derived from the fitted curves, not read from the paper.
